Data taken from article PMC4676731.
No constants are given. Whether binding was seen depends on the method and setting. Binding seen in cells or lysates may run through a third protein. Some entries that bind do so weakly or less than the wild type.

Legend:
[1] = biological target: T1, Rad9A (human (endogenous in HeLa)) (UniProt Q99638); experiment: condition: only denaturing conditions (1% SDS, boiling for 10 min at 95°C); co-IP; Denaturing IP (IPD) with anti-Rad9A: asynchronous HeLa Tet-Off cells lysed in 1% SDS buffer, boiled 10 min at 95°C, sonicated, diluted with 9 vol of modified RIPA buffer before IP; immunoblot
T1 sequence: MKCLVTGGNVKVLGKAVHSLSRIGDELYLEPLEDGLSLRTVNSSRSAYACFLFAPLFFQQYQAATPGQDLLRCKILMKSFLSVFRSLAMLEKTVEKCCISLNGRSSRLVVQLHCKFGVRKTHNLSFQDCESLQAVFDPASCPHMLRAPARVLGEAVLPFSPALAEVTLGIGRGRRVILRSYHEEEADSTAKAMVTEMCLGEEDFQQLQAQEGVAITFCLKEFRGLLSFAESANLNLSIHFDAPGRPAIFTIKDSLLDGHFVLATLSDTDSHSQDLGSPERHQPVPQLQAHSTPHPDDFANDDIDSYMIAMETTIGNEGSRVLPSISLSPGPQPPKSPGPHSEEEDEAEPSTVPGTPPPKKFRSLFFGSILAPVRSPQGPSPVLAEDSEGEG

[2] = biological target: T1, Rad9A (human (endogenous in HeLa)); experiment: co-IP; Non-denaturing IP (IPND) with affinity purified chicken polyclonal anti-Rad9A and PrecipHen beads from NETN lysates (120 mM NaCl, 20 mM Tris-HCl pH 8.0, 0.5% NP40, DNase I treated), 4°C; HeLa Tet-Off cells asynchronous (Fig 3A) or synchronized in S-phase, exposed to 100 μg/ml BLEO for 20 h, or 10 Gy IR and harvested 20 h later (Fig 6B); immunoblot
[3] = biological target: T2, Chk1 (human (endogenous in HeLa)) (UniProt O14757); experiment: co-IP; Non-denaturing IP with rabbit polyclonal anti-Chk1 (sc-7898) and protein A sepharose from NETN lysates of HeLa Tet-Off cells synchronized in S-phase; immunoblot for Rad9A
T2 sequence: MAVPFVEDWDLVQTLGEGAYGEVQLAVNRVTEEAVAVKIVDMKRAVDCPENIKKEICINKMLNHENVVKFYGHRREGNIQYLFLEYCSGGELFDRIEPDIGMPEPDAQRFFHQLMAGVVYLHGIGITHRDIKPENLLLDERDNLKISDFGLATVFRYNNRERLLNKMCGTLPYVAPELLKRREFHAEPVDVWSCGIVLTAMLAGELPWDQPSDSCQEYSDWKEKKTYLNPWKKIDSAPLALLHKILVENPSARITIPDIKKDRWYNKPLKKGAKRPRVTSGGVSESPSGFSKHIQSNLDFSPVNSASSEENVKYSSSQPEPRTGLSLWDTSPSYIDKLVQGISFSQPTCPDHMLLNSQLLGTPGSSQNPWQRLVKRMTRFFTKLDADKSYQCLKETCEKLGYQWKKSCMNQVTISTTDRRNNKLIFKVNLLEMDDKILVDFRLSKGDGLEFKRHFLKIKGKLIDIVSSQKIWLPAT

| Binder | binding [1] | binding [2] | binding [3] |
| --- | --- | --- | --- |
| Hus1 (protein, UniProt O60921 1-280) MKFRAKIVDGACLNHFTRISNMIAKLAKTCTLRISPDKLNFILCDKLANGGVSMWCELEQENFFNEFQMEGVSAENNEIYLELTSENLSRALKTAQNARALKIKLTNKHFPCLTVSVELLSMSSSSRIVTHDIPIKVIPRKLWKDLQEPVVPDPDVSIYLPVLKTMKSVVEKMKNISNHLVIEANLDGELNLKIETELVCVTTHFKDLGNPPLASESTHEDRNVEHMAEVHIDIRKLLQFLAGQQVNPTKALCNIVNNKMVHFDLLHEDVSLQYFIPALS | no binding | binds | – |
| Rad1 (protein, UniProt O60671 1-282) MPLLTQQIQDEDDQYSLVASLDNVRNLSTILKAIHFREHATCFATKNGIKVTVENAKCVQANAFIQAGIFQEFKVQEESVTFRINLTVLLDCLSIFGSSPMPGTLTALRMCYQGYGYPLMLFLEEGGVVTVCKINTQEPEETLDFDFCSTNVINKIILQSEGLREAFSELDMTSEVLQITMSPDKPYFRLSTFGNAGSSHLDYPKDSDLMEAFHCNQTQVNRYKISLLKPSTKALVLSCKVSIRTDNRGFLSLQYMIRNEDGQICFVEYYCCPDEEVPESES | no binding | binds | – |
| Rad9A (protein, UniProt Q99638 1-391) MKCLVTGGNVKVLGKAVHSLSRIGDELYLEPLEDGLSLRTVNSSRSAYACFLFAPLFFQQYQAATPGQDLLRCKILMKSFLSVFRSLAMLEKTVEKCCISLNGRSSRLVVQLHCKFGVRKTHNLSFQDCESLQAVFDPASCPHMLRAPARVLGEAVLPFSPALAEVTLGIGRGRRVILRSYHEEEADSTAKAMVTEMCLGEEDFQQLQAQEGVAITFCLKEFRGLLSFAESANLNLSIHFDAPGRPAIFTIKDSLLDGHFVLATLSDTDSHSQDLGSPERHQPVPQLQAHSTPHPDDFANDDIDSYMIAMETTIGNEGSRVLPSISLSPGPQPPKSPGPHSEEEDEAEPSTVPGTPPPKKFRSLFFGSILAPVRSPQGPSPVLAEDSEGEG | – | – | binds |
